# Assay results as given in ChEMBL document CHEMBL5308541, “MAIP: An Open-Source Tool to Enrich High-Throughput Screening Output and Identify Novel, Druglike Molecules with Antimalarial Activity” (ACS Med Chem Lett, 2023).
# Hit rate of the full screen: of about 150,000 compounds, about 540 (0.36%) showed an effect of 50% or more. This is one part of the list.
# Tested on: Plasmodium falciparum
# Experiment: Primary screen in NF54 nanoGlo assay, in single point, at 2uM, 72h; a lower Z score goes with more inhibition
# Assay type: functional, Erythrocyte
# Conditions: timepoint 72 hour
SMILES,% Inhibition,Z score
Cc1cc(N2CCCCC2)nc(NCCNC(=O)Cc2noc3ccccc23)n1,13%,-1.94
COc1ccccc1-c1cc(C(=O)Nc2ccc(N3CC[C@H](OC)C3)cc2)n[nH]1,-1%,0.25
CCCN1CCC(Nc2cc(C)nc3ccccc23)CC1,58%,-8.81
OCCN1CCC(NCCc2cc(Cl)cc(Cl)c2)CC1,28%,-5.52
CN1C[C@@H](c2ccccc2)CC2(CCN(c3nc(N)nc4[nH]ncc34)CC2)C1,-8%,1.74
O=C(Nc1cc(-c2cccc(F)c2)on1)N1CCC[C@@H]1CN1CCOCC1,-5%,1.17
Nc1nc(N[C@H]2CCN(c3ccccc3C(F)(F)F)C2)cc(-n2cccn2)n1,-2%,0.44
CN1CCCN(CC(=O)NCCCN2CCCC[C@@H]2CO)CC1,0%,0.01
CC(C)Nc1cc(-c2ccc(C(=O)N(C)[C@H]3CCN(C)C3)cc2)ncn1,-8%,1.34
Fc1ccc(N2CC[C@H](NCCCc3nc4cc(Cl)ccc4[nH]3)C2)cc1,-8%,1.4
CCc1cc2c(NCc3nc4cc(F)ccc4[nH]3)ncnc2s1,-17%,3
Cc1nc(Nc2ccc(NS(=O)(=O)c3ccc(OC(F)(F)F)cc3)cc2)cc(-n2ccnc2)n1,19%,-2.84
CC(C)CCOc1ccc2[nH]c(-c3cc(N4CCC[C@@H]4CS(C)(=O)=O)ccn3)cc2c1,97%,-20.97
c1ccc(N2CCN(CCN3CCC[C@@]4(CCNC4)C3)CC2)cc1,-12%,1.89
OC[C@H]1CN(c2ncc(Cl)c(Nc3ccc(F)cc3)n2)CCO1,-6%,0.87
COc1cc(Cn2c(NCCO)nc3ccccc32)sn1,-4%,0.66
Cc1cccc2c(Nc3ccc(C#N)cc3)ccnc12,-12%,2.5
COc1ccc2oc(CNCc3cnc4n3CCCC4)cc2c1,-2%,0.32
CCc1c[nH]c2ncnc(N3CC[C@H](CNc4cc(C)ccn4)C3)c12,-11%,2.39
Cc1cc(NC[C@H]2CC(=O)N(C3CCCC3)C2)nc2cc(F)ccc12,1%,-0.11
O=C(NCCNc1cc(C2CCNCC2)ncn1)c1ccc(F)cc1,-4%,0.81
COc1cc(CNCC(CN(C)C)C(O)c2ccccc2)cc(OC)c1OC(F)F (stereo unspecified),-9%,1.6

SMILES,% Inhibition,Z score
COc1ccc2[nH]nc(CN3CCCC[C@@H]3CCN3CCCC3=O)c2c1,3%,-0.69
CN(C(=O)c1ccnc2ccccc12)[C@H]1C[C@H]2C[C@@H](O)C[C@H]2C1,0%,-0.04
Cc1c(CNC2CC(C)(C)N(C)C(C)(C)C2)cnn1CCN1CC=CCC1,-9%,1.31
NCCc1nnc(NCc2ccc3sccc3c2)o1,1%,-0.18
Nc1nc(NCCc2c[nH]c3ccccc23)cc(C2CC(O)C2)n1 (stereo unspecified),6%,-1.22
CCCN1CCC(CNc2ncnc3ccc(S(C)(=O)=O)cc23)CC1,2%,-0.32
COc1cccc(Nc2nn3c(=O)c4ccc(Cl)cc4nc3s2)c1,-5%,0.72
OCC1CCCC(Nc2ncc(F)c(N3CCCC3)n2)C1 (stereo unspecified),-3%,0.63
COCCN(C)CC1CN(c2ncc(F)c(N3CCOCC3)n2)CC1CO (stereo unspecified),-16%,2.75
C[C@H]1COCCN1c1ccnc(N2CCOC[C@@H]2C)n1,-2%,0.32
Fc1ccccc1N1CCC(NC2COCC2Cc2ccnc3ccccc23)CC1 (stereo unspecified),-4%,0.83
CNc1nc(NC(Cc2ccncc2)[C@H]2C[C@@H](O)C2)ncc1F (stereo partly specified),-2%,0.39
C[C@H](NC(=O)CN(C)CCN(C)C1CCN(C)CC1)c1cccc2ccccc12,9%,-2.01
CC(C)c1cnc(NC2COCC2Cc2ccnc3ccccc23)nc1 (stereo unspecified),-20%,4.4
O=C(NCCN1CC[C@H](c2ccccc2)C1)c1cccc(-c2cnccn2)c1,-18%,3.14
Oc1ccc(OC(F)(F)F)cc1-c1ccc2nc[nH]c2c1,-9%,1.58
CC1(C)CC(Nc2cc(-c3ccccc3)ncn2)CC(C)(C)N1,-14%,2.11
Clc1cnc(NCCCNc2ncc(Cl)cn2)nc1,-9%,1.84
CN(C)c1ncc(CNC[C@H](O)c2ccc(F)cc2)s1,-5%,0.76
Cc1cc(S(=O)(=O)NCc2snnc2C(C)C)c(Cl)cc1F,-6%,1.29
CCOc1cc(N2CCN(C(C)C)CC2)ccc1NC(=O)c1ccnc(OC2CCC2)c1,-7%,1.19
